# This is one part of the list.
# B1: Gal-9-hFc (Mus musculus), O08573-2 (protein)
# chain: MALFSAQSPYINPIIPFTGPIQGGLQEGLQVTLQGTTKSFAQRFVVNFQNSFNGNDIAFHFNPRFEEGGYVVCNTKQNGQWGPEERKMQMPFQKGMPFELCFLVQRSEFKVMVNKKFFVQYQHRVPYHLVDTIAVSGCLKLSFITFQTQNFRPAHQAPMAQTTIHMVHSTPGQMFSTPGIPPVVYPTPAYTIPFYTPIPNGLYPSKSIMISGNVLPDATRFHINLRCGGDIAFHLNPRFNENAVVRNTQINNSWGQEERSLLGRMPFSRGQSFSVWIICEGHCFKVAVNGQHMCEYYHRLKNLQDINTLEVAGDIQLTHVQT
# Tests used:
# Assay in all cases: glycan array binding signal (z-score within array); higher = stronger binding
# Settings in all cases: glycan notation: IUPAC condensed, linker removed
# [1] = target: GlcNAc(a1-6)Gal(b1-4)GlcNAc
# Summary of the method: (§1)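 Negative Z-scores can be read as non-binding. The Z-score is calculated within each array and then averaged across arrays of one protein sequence at different concentrations or buffers and across linkers. Arrays, 3228 in all, were curated from the Consortium for Functional Glycomics database and kept only where the protein sequence was available.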
# [2] = target: GlcNAc(b1-2)Gal(b1-3)GalNAc
# Summary of the method: as §1
# [3] = target: GlcNAc(b1-2)Man(a1-3)[GlcNAc(b1-2)Man(a1-6)]Man(b1-4)GlcNAc(b1-4)GlcNAc
# Summary of the method: as §1
# [4] = target: GlcNAc(b1-2)Man(a1-3)[GlcNAc(b1-2)Man(a1-6)]Man(b1-4)GlcNAc(b1-4)[Fuc(a1-6)]GlcNAc
# Summary of the method: as §1
# [5] = target: GlcNAc(b1-2)Man(a1-3)[GlcNAc(b1-4)][GlcNAc(b1-2)Man(a1-6)]Man(b1-4)GlcNAc(b1-4)GlcNAc
# Summary of the method: as §1
# [6] = target: GlcNAc(b1-2)Man(a1-3)[GlcNAc(b1-4)][GlcNAc(b1-2)Man(a1-6)]Man(b1-4)GlcNAc(b1-4)[Fuc(a1-6)]GlcNAc
# Summary of the method: as §1
# [7] = target: GlcNAc(b1-2)[GlcNAc(b1-4)]Man(a1-3)[GlcNAc(b1-2)Man(a1-6)]Man(b1-4)GlcNAc(b1-4)GlcNAc
# Summary of the method: as §1
# [8] = target: GlcNAc(b1-2)[GlcNAc(b1-4)]Man(a1-3)[GlcNAc(b1-4)][GlcNAc(b1-2)Man(a1-6)]Man(b1-4)GlcNAc(b1-4)GlcNAc
# Summary of the method: as §1
# [9] = target: GlcNAc(b1-2)[GlcNAc(b1-4)]Man(a1-3)[GlcNAc(b1-4)][GlcNAc(b1-2)[GlcNAc(b1-6)]Man(a1-6)]Man(b1-4)GlcNAc(b1-4)GlcNAc
# Summary of the method: as §1
# [10] = target: GlcNAc(b1-2)[GlcNAc(b1-4)]Man(a1-3)[GlcNAc(b1-4)][GlcNAc(b1-2)[GlcNAc(b1-6)]Man(a1-6)]Man(b1-4)GlcNAc(b1-4)[Fuc(a1-6)]GlcNAc
# Summary of the method: as §1
# [11] = target: GlcNAc(b1-2)[GlcNAc(b1-6)]Man(a1-6)[GlcNAc(b1-2)Man(a1-3)]Man(b1-4)GlcNAc(b1-4)GlcNAc
# Summary of the method: as §1
# [12] = target: GlcNAc(b1-2)[GlcNAc(b1-6)]Man(a1-6)[GlcNAc(b1-2)Man(a1-3)]Man(b1-4)GlcNAc(b1-4)[Fuc(a1-6)]GlcNAc
# Summary of the method: as §1
# [13] = target: GlcNAc(b1-2)[GlcNAc(b1-6)]Man(a1-6)[GlcNAc(b1-4)][GlcNAc(b1-2)Man(a1-3)]Man(b1-4)GlcNAc(b1-4)GlcNAc
# Summary of the method: as §1
# [14] = target: GlcNAc(b1-3)Fuc
# Summary of the method: as §1
# [15] = target: GlcNAc(b1-3)Gal
# Summary of the method: as §1
# [16] = target: GlcNAc(b1-3)Gal(b1-3)GalNAc
# Summary of the method: as §1
# [17] = target: GlcNAc(b1-3)Gal(b1-4)Glc
# Summary of the method: as §1
# [18] = target: GlcNAc(b1-3)Gal(b1-4)GlcNAc
# Summary of the method: as §1
# [19] = target: GlcNAc(b1-3)Gal(b1-4)GlcNAc(b1-2)Man(a1-3)[GlcNAc(b1-3)Gal(b1-4)GlcNAc(b1-2)Man(a1-6)]Man(b1-4)GlcNAc(b1-4)GlcNAc
# Summary of the method: as §1
# [20] = target: GlcNAc(b1-3)Gal(b1-4)GlcNAc(b1-2)Man(a1-3)[GlcNAc(b1-3)Gal(b1-4)GlcNAc(b1-2)Man(a1-6)]Man(b1-4)GlcNAc(b1-4)[Fuc(a1-6)]GlcNAc
# Summary of the method: as §1
# [21] = target: GlcNAc(b1-3)Gal(b1-4)GlcNAc(b1-2)[GlcNAc(b1-3)Gal(b1-4)GlcNAc(b1-6)]Man(a1-6)[GlcNAc(b1-3)Gal(b1-4)GlcNAc(b1-2)Man(a1-3)]Man(b1-4)GlcNAc(b1-4)GlcNAc
# Summary of the method: as §1
# [22] = target: GlcNAc(b1-3)Gal(b1-4)GlcNAc(b1-3)Gal(b1-4)GlcNAc
# Summary of the method: as §1
# [23] = target: GlcNAc(b1-3)Gal(b1-4)GlcNAc(b1-3)Gal(b1-4)GlcNAc(b1-2)Man(a1-3)[GlcNAc(b1-3)Gal(b1-4)GlcNAc(b1-3)Gal(b1-4)GlcNAc(b1-2)Man(a1-6)]Man(b1-4)GlcNAc(b1-4)GlcNAc
# Summary of the method: as §1
# [24] = target: GlcNAc(b1-3)Gal(b1-4)GlcNAc(b1-3)Gal(b1-4)GlcNAc(b1-2)Man(a1-3)[GlcNAc(b1-3)Gal(b1-4)GlcNAc(b1-3)Gal(b1-4)GlcNAc(b1-2)Man(a1-6)]Man(b1-4)GlcNAc(b1-4)[Fuc(a1-6)]GlcNAc
# Summary of the method: as §1
# [25] = target: GlcNAc(b1-3)Gal(b1-4)GlcNAc(b1-3)Gal(b1-4)GlcNAc(b1-2)[GlcNAc(b1-3)Gal(b1-4)GlcNAc(b1-3)Gal(b1-4)GlcNAc(b1-6)]Man(a1-6)[GlcNAc(b1-3)Gal(b1-4)GlcNAc(b1-3)Gal(b1-4)GlcNAc(b1-2)Man(a1-3)]Man(b1-4)GlcNAc(b1-4)[Fuc(a1-6)]GlcNAc
# Summary of the method: as §1
# [26] = target: GlcNAc(b1-3)Gal(b1-4)GlcNAc(b1-3)Gal(b1-4)GlcNAc(b1-3)Gal(b1-4)GlcNAc(b1-2)Man(a1-3)[GlcNAc(b1-3)Gal(b1-4)GlcNAc(b1-3)Gal(b1-4)GlcNAc(b1-3)Gal(b1-4)GlcNAc(b1-2)Man(a1-6)]Man(b1-4)GlcNAc(b1-4)GlcNAc
# Summary of the method: as §1
# [27] = target: GlcNAc(b1-3)Gal(b1-4)GlcNAc(b1-3)Gal(b1-4)GlcNAc(b1-3)Gal(b1-4)GlcNAc(b1-2)Man(a1-3)[GlcNAc(b1-3)Gal(b1-4)GlcNAc(b1-3)Gal(b1-4)GlcNAc(b1-3)Gal(b1-4)GlcNAc(b1-2)Man(a1-6)]Man(b1-4)GlcNAc(b1-4)[Fuc(a1-6)]GlcNAc
# Summary of the method: as §1
# [28] = target: GlcNAc(b1-3)Gal(b1-4)GlcNAc(b1-3)Gal(b1-4)GlcNAc(b1-3)Gal(b1-4)GlcNAc(b1-2)[GlcNAc(b1-3)Gal(b1-4)GlcNAc(b1-3)Gal(b1-4)GlcNAc(b1-3)Gal(b1-4)GlcNAc(b1-6)]Man(a1-6)[GlcNAc(b1-3)Gal(b1-4)GlcNAc(b1-3)Gal(b1-4)GlcNAc(b1-3)Gal(b1-4)GlcNAc(b1-2)Man(a1-3)]Man(b1-4)GlcNAc(b1-4)[Fuc(a1-6)]GlcNAc
# Summary of the method: as §1
# [29] = target: GlcNAc(b1-3)Gal(b1-4)GlcNAc(b1-3)Gal(b1-4)GlcNAc(b1-3)Gal(b1-4)GlcNAc(b1-3)Gal(b1-4)GlcNAc(b1-2)Man(a1-3)[GlcNAc(b1-3)Gal(b1-4)GlcNAc(b1-3)Gal(b1-4)GlcNAc(b1-3)Gal(b1-4)GlcNAc(b1-3)Gal(b1-4)GlcNAc(b1-2)Man(a1-6)]Man(b1-4)GlcNAc(b1-4)GlcNAc
# Summary of the method: as §1
# [30] = target: GlcNAc(b1-3)Gal(b1-4)GlcNAc(b1-3)Gal(b1-4)GlcNAc(b1-3)Gal(b1-4)GlcNAc(b1-3)Gal(b1-4)GlcNAc(b1-2)Man(a1-3)[GlcNAc(b1-3)Gal(b1-4)GlcNAc(b1-3)Gal(b1-4)GlcNAc(b1-3)Gal(b1-4)GlcNAc(b1-3)Gal(b1-4)GlcNAc(b1-2)Man(a1-6)]Man(b1-4)GlcNAc(b1-4)[Fuc(a1-6)]GlcNAc
# Summary of the method: as §1
# [31] = target: GlcNAc(b1-3)Gal(b1-4)GlcNAc(b1-3)Gal(b1-4)GlcNAc(b1-3)Gal(b1-4)GlcNAc(b1-3)Gal(b1-4)GlcNAc(b1-2)[GlcNAc(b1-3)Gal(b1-4)GlcNAc(b1-3)Gal(b1-4)GlcNAc(b1-3)Gal(b1-4)GlcNAc(b1-3)Gal(b1-4)GlcNAc(b1-6)]Man(a1-6)[GlcNAc(b1-3)Gal(b1-4)GlcNAc(b1-3)Gal(b1-4)GlcNAc(b1-3)Gal(b1-4)GlcNAc(b1-3)Gal(b1-4)GlcNAc(b1-2)Man(a1-3)]Man(b1-4)GlcNAc(b1-4)[Fuc(a1-6)]GlcNAc
# Summary of the method: as §1
# [32] = target: GlcNAc(b1-3)Gal(b1-4)GlcNAc(b1-3)Gal(b1-4)GlcNAc(b1-3)GalNAc
# Summary of the method: as §1
# [33] = target: GlcNAc(b1-3)Gal(b1-4)GlcNAc(b1-3)GalNAc
# Summary of the method: as §1
# [34] = target: GlcNAc(b1-3)Gal(b1-4)GlcNAc(b1-3)[GlcNAc(b1-3)Gal(b1-4)GlcNAc(b1-3)]GalNAc
# Summary of the method: as §1
# [35] = target: GlcNAc(b1-3)Gal(b1-4)GlcNAc(b1-6)[Gal(b1-3)]GalNAc
# Summary of the method: as §1
# [36] = target: GlcNAc(b1-3)Gal(b1-4)GlcNAc(b1-6)[GlcNAc(b1-3)Gal(b1-3)]GalNAc
# Summary of the method: as §1
# [37] = target: GlcNAc(b1-3)Gal(b1-4)GlcNAc(b1-6)[GlcNAc(b1-3)]Gal(b1-4)GlcNAc
# Summary of the method: as §1
binder,measurement,setting,value
B1,glycan array binding signal (z-score),[1],-0.459
same,glycan array binding signal (z-score),[2],-0.319
same,glycan array binding signal (z-score),[3],-0.437
same,glycan array binding signal (z-score),[4],0.079
same,glycan array binding signal (z-score),[5],-0.371
same,glycan array binding signal (z-score),[6],-0.566
same,glycan array binding signal (z-score),[7],-0.473
same,glycan array binding signal (z-score),[8],2.04
same,glycan array binding signal (z-score),[9],-0.447
same,glycan array binding signal (z-score),[10],-0.554
same,glycan array binding signal (z-score),[11],-0.525
same,glycan array binding signal (z-score),[12],-0.498
same,glycan array binding signal (z-score),[13],-0.566
same,glycan array binding signal (z-score),[14],-0.429
same,glycan array binding signal (z-score),[15],-0.151
same,glycan array binding signal (z-score),[16],-0.326
same,glycan array binding signal (z-score),[17],-0.401
same,glycan array binding signal (z-score),[18],-0.323
same,glycan array binding signal (z-score),[19],-0.435
same,glycan array binding signal (z-score),[20],-0.203
same,glycan array binding signal (z-score),[21],-0.084
same,glycan array binding signal (z-score),[22],-0.363
same,glycan array binding signal (z-score),[23],0.436
same,glycan array binding signal (z-score),[24],-0.174
same,glycan array binding signal (z-score),[25],0.174
same,glycan array binding signal (z-score),[26],-0.186
same,glycan array binding signal (z-score),[27],1.04
same,glycan array binding signal (z-score),[28],0.397
same,glycan array binding signal (z-score),[29],-0.207
same,glycan array binding signal (z-score),[30],-0.392
same,glycan array binding signal (z-score),[31],-0.19
same,glycan array binding signal (z-score),[32],0.003
same,glycan array binding signal (z-score),[33],-0.339
same,glycan array binding signal (z-score),[34],-0.486
same,glycan array binding signal (z-score),[35],-0.325
same,glycan array binding signal (z-score),[36],-0.149
same,glycan array binding signal (z-score),[37],-0.207
